# Experimental data from the supplement of paper PMC10037445.
# In all, about 2,900 compounds were measured (“NF-kB SEAP reporter activity, fold change vs agonist alone”: median about 0.99, highest 2% from about 2.6 on). The list shows a part of the results.
# What was measured:
# RAW-Dual [1] = assay: NF-kB SEAP reporter activity, fold change vs agonist alone; cytotoxicity flag (confluency mask): cytotoxic (confluency <70% of control); higher = enhanced NF-kB activity
# How it was run: (§1)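 Reporter activity is given as fold change relative to agonist-alone wells. To measure it, 50 nL of library stock was pin-tooled onto RAW-Dual macrophages (50,000 cells/well, DMEM, 384-well plates), a PRR agonist followed 1 h later, and cells stayed at 37 °C, 5% CO2. Twenty hours on, supernatant was assayed for IRF (QuantiLuc luminescence) and NF-κB (QuantiBlue, 620 nm absorbance), and wells under 70% of agonist-control IncuCyte confluency in both mask sets were marked cytotoxic.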
# RAW-Dual [2] = assay: NF-kB SEAP reporter activity, fold change vs agonist alone; cytotoxicity flag (confluency mask): not cytotoxic; higher = enhanced NF-kB activity
# How it was run: as §1
# RAW-Dual [3] = assay: NF-kB SEAP reporter activity, fold change vs agonist alone; higher = enhanced NF-kB activity; details: library stock concentration (final ~1000-fold dilution): 10 mM
# How it was run: as §1
# [4] = agonist: ODN 1826 (TLR9) 0.5 ug/mL
# [5] = agonist: Pam2CSK4 (TLR2/6) 0.1 ug/mL
# [6] = agonist: Pam3CSK4 (TLR2/1) 0.1 ug/mL
# [7] = cytotoxicity flag (confluency mask): not cytotoxic, agonist: Imiquimod (TLR7) […]
# [8] = cytotoxicity flag (confluency mask): not cytotoxic, agonist: MPLA (TLR4) […]
compound,measurement,setting,value
COc1ccc(CC2NCC(O)C2OC(C)=O)cc1 (stereo not drawn) (library stock concentration (final ~1000-fold dilution): 10 mM),NF-kB SEAP reporter activity,RAW-Dual [1]; agonist: LPS (TLR4) 0.1 ug/mL,0.216
same,NF-kB SEAP reporter activity,RAW-Dual [1]; [4],0.171
same,NF-kB SEAP reporter activity,RAW-Dual [1]; [5],0.0635
same,NF-kB SEAP reporter activity,RAW-Dual [1]; [6],0.145
CCC1(C)CC(=O)NC(=O)C1 (library stock concentration (final ~1000-fold dilution): 10 mM),NF-kB SEAP reporter activity,RAW-Dual [2]; agonist: LPS (TLR4) 0.1 ug/mL,1.11
same,NF-kB SEAP reporter activity,RAW-Dual [2]; [4],0.893
same,NF-kB SEAP reporter activity,RAW-Dual [2]; [5],1.1
same,NF-kB SEAP reporter activity,RAW-Dual [2]; [6],1.03
CCC1(C)CC(=O)NC(=O)C1,NF-kB SEAP reporter activity,RAW-Dual [3]; [7],0.906
same,NF-kB SEAP reporter activity,RAW-Dual [3]; [8],1.07
COc1cc2c(cc1O)CC1c3c(cc(O)c(OC)c3-2)CCN1C (stereo not drawn) (library stock concentration (final ~1000-fold dilution): 10 mM),NF-kB SEAP reporter activity,RAW-Dual [2]; agonist: LPS (TLR4) 0.1 ug/mL,1.04
same,NF-kB SEAP reporter activity,RAW-Dual [2]; [4],0.815
same,NF-kB SEAP reporter activity,RAW-Dual [2]; [5],1.1
same,NF-kB SEAP reporter activity,RAW-Dual [2]; [6],1.1
COc1cc2c(cc1O)CC1c3c(cc(O)c(OC)c3-2)CCN1C (stereo not drawn),NF-kB SEAP reporter activity,RAW-Dual [3]; [7],0.85
same,NF-kB SEAP reporter activity,RAW-Dual [3]; [8],0.895
Cc1sc2c(c1C)C(c1ccc(Cl)cc1)=NC(CC(=O)Nc1ccc(O)cc1)c1nnc(C)n1-2 (stereo not drawn) (library stock concentration (final ~1000-fold dilution): 10 mM),NF-kB SEAP reporter activity,RAW-Dual [2]; agonist: LPS (TLR4) 0.1 ug/mL,3.19
COc1cc(OC)c(OC)cc1C=O (library stock concentration (final ~1000-fold dilution): 10 mM),NF-kB SEAP reporter activity,RAW-Dual [2]; agonist: LPS (TLR4) 0.1 ug/mL,0.937
same,NF-kB SEAP reporter activity,RAW-Dual [2]; [4],0.964
same,NF-kB SEAP reporter activity,RAW-Dual [2]; [5],1.14
same,NF-kB SEAP reporter activity,RAW-Dual [2]; [6],1.01
COc1cc(OC)c(OC)cc1C=O,NF-kB SEAP reporter activity,RAW-Dual [3]; [7],0.908
same,NF-kB SEAP reporter activity,RAW-Dual [3]; [8],1.01
Cc1sc2c(c1C)C(c1ccc(Cl)cc1)=NC(CC(N)=O)c1nnc(C)n1-2 (stereo not drawn) (library stock concentration (final ~1000-fold dilution): 10 mM),NF-kB SEAP reporter activity,RAW-Dual [2]; agonist: LPS (TLR4) 0.1 ug/mL,2.51
same,NF-kB SEAP reporter activity,RAW-Dual [2]; [4],1.97
same,NF-kB SEAP reporter activity,RAW-Dual [2]; [5],0.734
same,NF-kB SEAP reporter activity,RAW-Dual [2]; [6],1.69
Cc1sc2c(c1C)C(c1ccc(Cl)cc1)=NC(CC(N)=O)c1nnc(C)n1-2 (stereo not drawn),NF-kB SEAP reporter activity,RAW-Dual [3]; [7],1.43
same,NF-kB SEAP reporter activity,RAW-Dual [3]; [8],2.38
O=C(CC1NCCCC1O)Cn1cnc2cc(Br)c(Cl)cc2c1=O (stereo not drawn),NF-kB SEAP reporter activity,"RAW-Dual [3]; cytotoxicity flag (confluency mask): cytotoxic (confluency <70% of control), agonist: Imiquimod (TLR7) […]",0.144
same,NF-kB SEAP reporter activity,"RAW-Dual [3]; cytotoxicity flag (confluency mask): cytotoxic (confluency <70% of control), agonist: MPLA (TLR4) […]",0.256
O=C(CC1NCCCC1O)Cn1cnc2cc(Br)c(Cl)cc2c1=O (stereo not drawn) (library stock concentration (final ~1000-fold dilution): 10 mM),NF-kB SEAP reporter activity,RAW-Dual [1]; agonist: LPS (TLR4) 0.1 ug/mL,0.367
same,NF-kB SEAP reporter activity,RAW-Dual [1]; [4],0.194
same,NF-kB SEAP reporter activity,RAW-Dual [1]; [5],0.0662
same,NF-kB SEAP reporter activity,RAW-Dual [1]; [6],0.136
O=c1[nH]c2ccccc2n1C1CCN(Cc2ccc(-c3nc4cc5nc[nH]c5cc4nc3-c3ccccc3)cc2)CC1,NF-kB SEAP reporter activity,RAW-Dual [3]; [7],0.45
same,NF-kB SEAP reporter activity,RAW-Dual [3]; [8],1.05
O=c1[nH]c2ccccc2n1C1CCN(Cc2ccc(-c3nc4cc5nc[nH]c5cc4nc3-c3ccccc3)cc2)CC1 (library stock concentration (final ~1000-fold dilution): 10 mM),NF-kB SEAP reporter activity,RAW-Dual [2]; agonist: LPS (TLR4) 0.1 ug/mL,1.2
same,NF-kB SEAP reporter activity,RAW-Dual [2]; [4],0.187
same,NF-kB SEAP reporter activity,RAW-Dual [2]; [5],0.317
same,NF-kB SEAP reporter activity,RAW-Dual [2]; [6],0.427
CN(C)C(=O)Oc1cc(OC(=O)N(C)C)cc(C(O)CNC(C)(C)C)c1.Cl (stereo not drawn) (library stock concentration (final ~1000-fold dilution): 10 mM),NF-kB SEAP reporter activity,RAW-Dual [2]; agonist: LPS (TLR4) 0.1 ug/mL,0.964
same,NF-kB SEAP reporter activity,RAW-Dual [2]; [4],1.07
same,NF-kB SEAP reporter activity,RAW-Dual [2]; [5],1.06
same,NF-kB SEAP reporter activity,RAW-Dual [2]; [6],1.04
CN(C)C(=O)Oc1cc(OC(=O)N(C)C)cc(C(O)CNC(C)(C)C)c1.Cl (stereo not drawn),NF-kB SEAP reporter activity,RAW-Dual [3]; [7],0.983
same,NF-kB SEAP reporter activity,RAW-Dual [3]; [8],1.12
C=C(C)C1Cc2c(ccc3c2OC2COc4cc(OC)c(OC)cc4C2C3=O)O1 (stereo not drawn),NF-kB SEAP reporter activity,RAW-Dual [3]; [7],1.87
same,NF-kB SEAP reporter activity,RAW-Dual [3]; [8],1.85
C=C(C)C1Cc2c(ccc3c2OC2COc4cc(OC)c(OC)cc4C2C3=O)O1 (stereo not drawn) (library stock concentration (final ~1000-fold dilution): 10 mM),NF-kB SEAP reporter activity,RAW-Dual [2]; agonist: LPS (TLR4) 0.1 ug/mL,3.13
same,NF-kB SEAP reporter activity,RAW-Dual [2]; [4],2.36
same,NF-kB SEAP reporter activity,RAW-Dual [2]; [5],1.27
same,NF-kB SEAP reporter activity,RAW-Dual [2]; [6],1.45
